The supplement of paper PMC11417369
± gives the standard deviation of the averaged measurements. This is one part of the list.

These sequences were tested on PfAP2-I AP2 domain 3 (GST-tagged) (assay: gcPBM binding intensity (ln(normalized median fluorescence intensity)); higher = stronger DNA binding).
Outline: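 Alexa488 anti-GST antibody, scanned at 488 nm, detected GST-tagged P. falciparum DNA-binding domains that had been expressed in E. coli and incubated for 1 h on an Agilent 4 × 180k array. The array carried primer-extended double-stranded 36-bp intergenic genomic probes and negative controls. Binding intensity is the highest Masliner-normalised natural-log median intensity across replicate spots of either orientation of each probe.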

Sequence | gcPBM binding intensity (ln)
ATATATATATATATATGTACATATATTTATTTATTG [XGTACX_site6267] | 9.21 ± 0.89
ATAAAATGATAAATTTGTACACAAAAAAAAAAAAAA [XGTACX_site964] | 8.04 ± 0.54
AAAATAAAATATTTCTGTACTTATAACTATTCTATA [XGTACX_site8007] | 7.61 ± 0.52
GGGTATACAAATAAACGTACAAACTCATAAAAAAAA [XGTACX_site3191] | 8.05 ± 0.29
CATATATAACAATTCTCACACATAAAAAAAAAAAAT [CACACA_site4564] | 7.46 ± 0.49
TTTTTGCCATATTACACACACACATGTAAACCCCCT [CACACA_site1647] | 9.225 ± 0.007
GTGAAATATGCAAACACACACGAGAAAAATGTATAT [CACACA_site7488] | 8.19 ± 0.91
CAAAACAAAACGTATGCACACAATTAATATATTAAA [CACACA_site3405] | 8.42 ± 0.47
TAAATAAGCACATACACACATACATACATACATAAA [CACACA_site4017] | 8.32 ± 0.17
AACCCCGTGGAAATATGTACATATAAATATATAAAT [XGTACX_site2094] | 8.35 ± 0.89
TATTTTTTTCTTACATACTAATTTGGTACTCACATA [TGCATGCA_negctrl_site81] | 7.83 ± 0.67
AAATAAATCTTATGCACACAAATAATTAATTAAACA [CACACA_site1693] | 9.38 ± 0.18
AGAGTTCTCATATGCACACAAAAAACTTTCATTTAT [CACACA_site45] | 8.74 ± 0.33
TTGATTACACTGAAGTGTACATATATATATATATAT [XGTACX_site3532] | 9.38 ± 0.21
AATATCCACATTAGGAGTACACAGCTAACTGTTTGA [XGTACX_site3357] | 7.86 ± 0.57
AAATAATAAAAAAAATGTACACGTAAATATTATATT [XGTACX_site8125] | 8.12 ± 0.83
TTTTATATAAAATCGTGTACATACCATTTCCTATTA [XGTACX_site5159] | 9.02 ± 1
AAAAAAAAAAGAAACACACACATTTGTATATAATAT [CACACA_site2078] | 7.54 ± 0.6
CATATAAAAATGTGCACACACACACCCATATATATT [CACACA_site1526] | 9.42 ± 0.45
AAAATTAATAAATAAACACACATATATATATATATA [CACACA_site2598] | 9.37 ± 0.34
TAAAAAATAAATATATGTACATATTTATTTTTTTTT [XGTACX_site850] | 7.47 ± 0.17
ATATTTTTTTTTTCGTGTACGCATAAATATATCTAA [XGTACX_site3360] | 8.27 ± 0.42

Sequence | gcPBM binding intensity (ln)
ATTGAATTCCAACTGGTGCACCAGTAAGATTGAAAA [GTGCAC_site9895] | 10.6 ± 0.3
TAGATAAACAAGAAATGTACAAACGTAAATATGTTC [XGTACX_site2373] | 7.59 ± 0.73
ATATATTATTTCTAGTGTACATACCCATATATAATA [XGTACX_site8902] | 8.54 ± 0.4
ATAAATAAGATATATACACACATATCTATACATATT [CACACA_site6369] | 7.66 ± 0.63
ATTTAAGAAAAAAGTTGTACTTATTTATTTTTATTT [XGTACX_site5561] | 7.68 ± 0.3
GGCTAAAAGGGGCACACACACAAAAAAAAAAAAAAA [CACACA_site3288] | 8.69 ± 0.12
AATCCACTTTTTTATGTTATACAATATAAATTAAAT [XGTACX_negctrl_site446] | 7.71 ± 0.59
AGTGGAATGTATGATTTTCATTCCTTAAAATTTTAA [GTGCAC_negctrl_site521] | 7.34 ± 0.71
TATTGATTTATAAACACACACTCGAAGATGTTTAAC [CACACA_site4760] | 7.58 ± 0.59
AATACTAAAAAGTGTACACATACATAAAAAATTGCA [CACACA_site5620] | 8.29 ± 0.29
AAGAAAAAAGTTATTAGTACACATTATAATAAAAAG [XGTACX_site3527] | 7.97 ± 0.54
CATTATGTTGTAAATACACACATACATATACATACA [CACACA_site8143] | 7.78 ± 0.56
TATATATATGTAAATCGTACAAATTATATATATCAT [XGTACX_site2821] | 7.8 ± 0.49
TATATCTCATAGTATACACACACACCCACCCACATA [CACACA_site8513] | 8.62 ± 0.74
TAATTTTCTTTTTATCGTTTTTTTTTTTTTTTTTTT [XGTACX_negctrl_site432] | 8.96 ± 0.52
ATAAATATGTAAAAAACATGCAAAAAATTAAAGACA [TGCATGCA_site912] | 8.14 ± 0.65
GTTATTAAACAGAAAAGTACATATGTATATTAAAAT [XGTACX_site3724] | 7.95 ± 0.64
TTATTAAATAAAATCATGCACACAATATATATTTTA [CACACA_site2496] | 8.28 ± 0.37
TTATTACATAACAATATACACACTATTGATTAAAGA [CACACA_site2933] | 7.6 ± 0.52
TAAAAAAAAAGAAGCTGTACTAAAAAATTTATATTA [XGTACX_site7408] | 7.55 ± 0.49
GGAAACAAAAAATATATACACACTAAACATAAAAAA [CACACA_site20] | 7.66 ± 0.65
TCATAGTAGAAACACACACACACACCCATATATATA [CACACA_site1737] | 8.46 ± 0.7
